Out of some 52,000 compounds screened, about 4,300 (8.3%) were called active. No stated cut-off is given here; in the data, active means survival mostly below about 52% (no sharp cut-off); inactive means mostly above about 56%. The list shows a part of the results.
Tested on: DeltatarO mutant
Test: S. aureus survival, RN4220 and DeltatarO strains – OD600, teichoic acid synthesis inhibitors, primary screen (AID 463173)
Details: S. aureus RN4220 wild type/DeltatarO growth, OD600, 18 h, active compounds read low, screened at 18.75 µg/mL (by protocol)

| SMILES | survival |
| --- | --- |
| Cc1ccc(-n2ccnc(NCc3cccs3)c2=O)cc1C | inactive: 126% |
| Cc1cccc(Cn2c(SCc3ccc(C(=O)NCc4ccccc4F)cc3)nc3cccnc32)c1 | inactive: 98% |
| CCOc1ccccc1CNC(=O)C1CCN(Cc2cc3ccccc3n2Cc2ccccc2)CC1 | inactive: 86% |
| Cc1ccc(-c2cn3nc(N4CCC(C(=O)Nc5ccccc5C)CC4)sc3n2)cc1 | inactive: 80% |
| CC(C(=O)NCc1ccco1)N(C(=O)c1ccc(Cl)nc1)C1CCCCC1 (stereo not drawn) | inactive: 116% |
| Cc1ccc2oc(C(=O)Nc3ccc(S(=O)(=O)Nc4ncccn4)cc3)cc(=O)c2c1 | inactive: 70% |
| NCC(O)CN1CCN(Cc2ccccc2)CC1 (stereo not drawn) | inactive: 92% |
| c1ccc2c(c1)nc1n2CCN1CCNC1CCCCC1 | inactive: 104% |
| CCNC(=S)NCc1ccc2c(c1)OCO2 | inactive: 85% |
| CCC(C(=O)Nc1cc(OC)ccc1OC)n1nc(-c2ccccc2)c2c(c1=O)CCCC2 (stereo not drawn) | active: 35% |
| CN(C)S(=O)(=O)N(CC(=O)NCCSc1ccc(Cl)cc1)c1ccccc1 | inactive: 50% |
| Cc1ccc(-n2ncc(C(=O)N3CCN(c4cccc(C)c4C)CC3)c2C2CCNCC2)c(C)c1 | inactive: 83% |
| CCOC(=O)c1cc(-c2ccc(F)cc2)n(CCC(=O)NCc2ccc(C)cc2)c1C | inactive: 77% |
| COc1ccc(Br)cc1CC1C(=O)Nc2ccccc21 (stereo not drawn) | inactive: 62% |
| O=C(COc1ccccc1F)Nc1ccc2nc(SCc3ccccc3)sc2c1 | inactive: 83% |
| CCC(=O)N1CCc2cc(S(=O)(=O)NCCC(=O)Nc3cccc(SC)c3)ccc21 | inactive: 85% |
| COc1ccc2oc(=O)c(-c3nc4ccc(C)cc4[nH]3)cc2c1 | inactive: 107% |
| Cc1ccc(NC(c2cccc(Cl)c2)c2nnc(-c3ccccc3)o2)cc1F (stereo not drawn) | inactive: 99% |
| CCOC(=O)C1CCN(C(=O)Cn2nc(CC)n3c(cc4occc43)c2=O)CC1 | inactive: 92% |
| CCCCc1nn2c(C)c(-c3ccc(OCC)cc3)nc2s1 | inactive: 103% |

| SMILES | survival |
| --- | --- |
| Cc1cc(Cl)ccc1NS(=O)(=O)c1cc2[nH]c(=O)c(=O)[nH]c2cc1C | inactive: 93% |
| COc1ccc(-c2nc(N)n(C(C)=O)n2)cc1 | inactive: 105% |
| Cc1ccc(-n2c(=O)[nH]c3sc4c(c3c2=O)CCNC4)cc1C | inactive: 84% |
| O=C(Cn1ncc2c3ccccc3n(Cc3cccc(Cl)c3)c2c1=O)N1CCCCC1 | inactive: 75% |
| COc1ccc(CN2C(=O)c3ccccc3C2C(=O)NC2CCCCCC2)c(OC)c1 (stereo not drawn) | inactive: 79% |
| CN(C(=O)NCc1noc2ccccc12)c1cccc(Cl)c1 | inactive: 58% |
| COc1ccccc1NC(=O)C1=C(C)Nc2nc(SCc3ccccc3Cl)nn2C1c1cccnc1 (stereo not drawn) | inactive: 189% |
| Cc1ccc2c(c1)sc1nc(=O)n(-c3cccc(Cl)c3)c(=O)n12 | inactive: 85% |
| CCCN1C(C(=O)c2ccccc2)=C(OC(=O)C(C)(C)C)c2ccccc2S1(=O)=O | inactive: 53% |
| Cc1ccc(NC(=O)CN2CCN(C3CCCCC3)C(=O)C2=O)cc1C | inactive: 89% |
| CCOC(=O)CSc1nc2cc3c(cc2c(=O)n1CCCCCC(=O)NCc1ccc2c(c1)OCO2)OCO3 | inactive: 70% |
| CCCCN(C)C(=O)c1ccc2c(c1)N(Cc1cccc(Cl)c1)C(=O)c1ccccc1S2=O (stereo not drawn) | inactive: 99% |
| Cc1cc(C)cc(NC(=O)N2CCN(C)c3ncccc32)c1 | inactive: 79% |
| Cc1ccc2c(CC(=O)Nc3ccc(S(=O)(=O)Nc4nc(C)cc(C)n4)cc3)coc2c1 | inactive: 61% |
| COc1cc(C2Nc3ccccc3-c3nnc(SCc4ccc(Cl)cc4)nc3O2)ccc1OCC(=O)O (stereo not drawn) | inactive: 74% |
| CCc1cccc(C)c1NC(=O)C(CC)Sc1nc2ccncc2[nH]1 (stereo not drawn) | inactive: 124% |
| CCCCc1nn2c(=O)cc(COC(=O)c3ccc(NC(=O)c4cccc(OC)c4)cc3)nc2s1 | inactive: 102% |
| CCCN1CCN(CC2=C(C(=O)OCC)C(c3cccc(OC)c3OC)NC(=O)N2)CC1 (stereo not drawn) | inactive: 94% |
| COc1ccc(CN2CCN(c3ncnc4sc5c(c34)CCCC5)CC2)cc1F | active: 33% |
| CSc1ncc(C(=O)NCc2ccccc2Cl)c(C(F)(F)F)n1 | inactive: 89% |

| SMILES | survival |
| --- | --- |
| Cc1ccc(NC(=O)N2CCc3c(sc4c3CCCC4)C2c2ccccc2)cc1F (stereo not drawn) | inactive: 102% |
| Cc1ccc(OCCSc2nc3ccccc3n2CC(=O)N2CCCCC2)cc1C | active: 46% |
| COC(=O)c1ccccc1NC(=O)CCn1nc(C)c2c(C)n(-c3ccccc3)nc2c1=O | inactive: 75% |
| CC(=O)c1cccc(Nc2cc(C)nc3nc(-c4ccccc4C)nn23)c1 | inactive: 90% |
| Cc1ccc(CNC(=O)C2CCCN(c3nc4c(C)cc(C)cc4s3)C2)cc1 (stereo not drawn) | inactive: 94% |
| O=C(Nc1ccc(NC(=O)c2cccs2)cc1)c1ccc(Cl)cc1 | inactive: 70% |
| COC(=O)c1ccccc1NC(=O)Cn1ncc2c(C)n(Cc3ccc(F)cc3)c(C)c2c1=O | inactive: 52% |
| CCOc1ccc(CNC(=O)CN2C(=O)CSc3ccc(S(=O)(=O)N4CCOCC4)cc32)cc1OC | inactive: 73% |
| Cn1c(=O)cc(OCC(=O)N2CCN(c3ccccc3F)CC2)c2ccccc21 | inactive: 82% |
| Cc1cc2oc(C(=O)N(Cc3ccc(N(C)C)cc3)CC3CCCO3)c(C)c2cc1C (stereo not drawn) | inactive: 54% |
| O=C(CCCCn1c(=O)c2ccccc2n(Cc2ccccc2F)c1=O)NCc1ccc2c(c1)OCO2 | inactive: 120% |
| O=C(NCc1ccc(Cl)cc1)C1(c2cccs2)CCOCC1 | inactive: 80% |
| COc1ccc(-c2noc(-c3cc(C(C)C)[nH]n3)n2)cc1 | inactive: 65% |
| CCN1CCc2c(sc(NC(=O)CSc3ccccc3)c2-c2nc3ccccc3s2)C1 | active: -5% |
| Cc1cc(C(F)(F)F)c(C#N)c(SCC(=O)C(C)(C)C)n1 | inactive: 79% |
| COc1ccc(CNC(=O)CCc2nc3cccnc3n2Cc2ccc(OC)cc2)cc1 | inactive: 80% |
| O=C(Cn1cc(S(=O)(=O)Cc2cccc(Cl)c2)c2ccccc21)Nc1ccc(F)c(Cl)c1 | inactive: 82% |
| CCCCOc1ccc(Cn2c(=O)oc3ccccc32)cc1 | inactive: 127% |

Source: PubChem BioAssay AID463173 (ICCB-Longwood Screening Facility, Harvard Medical School, 2010)
